# The whole screen tested about 350,000 compounds, of which about 9,900 (2.8%) were called active. Inconclusive means that the source gave no clear call. Such entries were picked first, then a sample of the others. Calls follow the shape of the dose curve; as a rule, active = well fitted activation curve with a large enough effect; inconclusive = small, poorly fitted or top-dose-only effect; inactive = no such curve, though single readings can be large or run the other way. No potency is given beside an inconclusive call; the fits are too rough.
# Assay: A quantitative high throughput screen for small molecules that induce DNA re-replication in MCF 10a normal breast cells. Also: nearly all actives have a fitted effect of over 50% in size. As to activity, positive = re-replication: % of control where 0% means no effect.
# Conditions: MCF 10A DNA re-replication, Hoechst nuclear intensity, 48 h; activity, positive = re-replication: at 46.1 µM (top of the series)
# Potency is read from the fitted curve at half-maximal effect; tags tell the direction and shape of the fitted curve.
SMILES,Potency,"activity, positive = re-replication"
COc1ccc(/C=N/NC(=O)c2csc(-n3nc(C)cc3C(F)(F)F)n2)cc1,"inconclusive [activator, full curve]",–
Cc1cc(C2=CC(=O)C[C@H](c3ccc4c(c3)OCO4)C2)ccc1F,"inconclusive [activator, full curve, poor fit]",–
COc1ccc(O)c(C(=O)c2cnc3nc4ccccc4n3c2)c1,"inconclusive [activator, partial curve, poor fit]",–
COc1ccccc1-c1cn[nH]c1-c1ccc(OCc2ccccc2F)cc1O,active: 7.31 µM,–
CCOC(=O)c1cc(-c2ccccc2)sc1NC(=O)CSc1nncs1,"inconclusive [activator, partial curve, poor fit]",–
CCCC(=O)C1=C(O)C(C(=O)OC)C(C)(C)CC1=NC(C)C (centres undefined),"inconclusive [activator, partial curve, poor fit]",–
O=C(C1CCN(S(=O)(=O)c2ccccc2)CC1)N1CCc2ccccc21,"inconclusive [activator, partial curve, poor fit]",–
COCc1ccc(C(=O)NC2CC(C)(C)Cc3c2cnn3-c2ccc(C)cc2)o1 (centres undefined),"inconclusive [activator, single point]",–
Nc1cccn2c(-c3ccc(Cl)c(Cl)c3)cnc12,"inconclusive [activator, partial curve, poor fit]",–
O=C(O)Cc1ccc(O)c(F)c1,inactive,–
Cc1ccc(C(=O)Nc2nnc(-c3ccc(C(C)(C)C)cc3)s2)cc1,–,inactive: -9.11%
CCCSC1=C(C#N)C(c2cccs2)CC(=O)N1 (centres undefined),"inconclusive [activator, full curve, poor fit]",–
COc1ccccc1/C=C/C1(C(=O)NC2CCCC2)CC(=O)N1c1ccccc1 (centres undefined),active: 9.2 µM,–
COc1ccc(-n2c(CN3CCOCC3)nc3ccc([N+](=O)[O-])cc3c2=O)c(OC)c1,–,inactive: 3.24%
COc1ccc(C(=O)NC2CCCc3c2cnn3-c2cc(F)cc(F)c2)c(OC)c1OC (centres undefined),"inconclusive [activator, partial curve]",–
Cc1ccc(Nc2ncnc3ccccc23)cc1,–,inactive: -18.3%
CCc1cccc(CC)c1NC(=O)CN1CC(C)SC1=NC1CCCCC1 (centres undefined),"inconclusive [activator, single point]",–
CC1=C([N+](=O)[O-])C(c2ccc3c(c2)OCO3)N(C)C(=O)N1C (centres undefined),"inconclusive [activator, partial curve, poor fit]",–
FC(F)(F)c1cccc(/C=N/NC(=S)NC2CCCCC2)c1,"inconclusive [activator, single point]",–

# Source: PubChem BioAssay AID624296 (National Center for Advancing Translational Sciences (NCATS), 2012)
